What all share (assay): cell count relative to DMSO control; melanoma cells; higher = more viable cells
Settings in all cases: library dose: low library concentration; 72 h

Test [1] relates to MZ2-MEL.
Test [2] relates to MeWo.
Test [3] has as its system RPMI7951.
Test [4] has as its system RVH-421.
In test [5] the test system is SkMel28.
Test [6] relates to SkMel2.
Test [7] deals with SkMel30.
In test [8] the test system is UACC62.
Test [9] has as its system WM115.
For test [10], the system named is WM1716.
For test [11], the system named is WM1745.
Test [12] relates to WM3526.
Test [13] deals with WM3619.
The subject of test [14] is WM451Lu.

Some of the results follow. Single values are uncertain, as repeats are few or missing.
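Note: cell number obtained by counting DAPI-stained nuclei in high-throughput microscope images with image analysis software, screen run in 1,536-well plates.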

With `NC(=O)c1ccc(N(C(N)=O)c2c(F)cccc2F)nc1-c1ccc(F)cc1F` + COc1ccc(Cl)c(Nc2nc3ccccc3nc2NS(=O)(=O)c2cccc(NC(=O)C(C)(C)N)c2)c1 [XL147] (first compound 0.4 µM, partner dose 0.8 µM), the cell count in test [1] is 94.5%; in [2], 98.3%; in test [3] it was 92.5%; in test [4], 94.8%; in [5] it was 93.8%; in [6] it was 94.7%. The cell count worked out at 120% in test [7]; 102% in test [8]; 100% in [9]; 111% in [10]; 96.5% in [11]; 107% in test [12]. Also, the cell count in [13] stood at 95.2%; in test [14], 89.9%.

`CCCCCCCCc1ccc(CCC(N)(CO)CO)cc1` [fingolimod] + Nc1ccn([C@@H]2O[C@H](CO)[C@@H](O)C2(F)F)c(=O)n1 [gemcitabine] (first compound 2 µM, partner dose 0.0004 µM): the cell count in test [1] is 88.8%; in [2] it was 96.5%; in test [3], 83.9%; in test [4], 89.3%; in test [5], 81.4%; in [6], 91%. In addition, the cell count in [7] is 90.1%; in test [8], 89.8%; in test [9], 90.1%; in test [10], 83.5%; in test [11] it was 82%; in test [12] it was 92.3%. Moreover, the cell count was determined as 81.6% in test [13] and 123% in [14].

With `NC(=O)c1ccc(N(C(N)=O)c2c(F)cccc2F)nc1-c1ccc(F)cc1F` + CC(=O)c1c(C)c2cnc(Nc3ccc(N4CCNCC4)cn3)nc2n(C2CCCC2)c1=O [palbociclib] (first compound 0.4 µM, partner dose 0.04 µM), the cell count in test [1] turned out to be 82.7%; in [2], 102%; in [3], 96.3%; in test [4], 84.9%; in test [5], 84.5%; in test [6], 81.6%. Moreover, the cell count in test [7] was 102%; in test [8], 93.2%; in test [9] it was 83.1%; in [10], 78.2%; in [11] it was 82.1%; in test [12] it was 87.3%. Further, the cell count in [13] was 54.5%; in test [14], 91.4%.

Take `NC(=O)c1ccc(N(C(N)=O)c2c(F)cccc2F)nc1-c1ccc(F)cc1F` + O=C(O)c1ccc2c(c1)nc(Nc1cccc(Cl)c1)c1ccncc12 [CX4945] (first compound 0.4 µM, partner dose 0.4 µM): the cell count in [1] amounted to 99.6%; in test [2], 96.5%; in [3], 91.1%; in test [4] it was 90.7%; in test [5], 112%; in [6], 104%. Further, the cell count amounted to 115% in [7]; 107% in test [8]; 103% in [9]; 110% in test [10]; 89.7% in test [11]; 92.5% in test [12]. In addition, the cell count in test [13] is 78.4%; in [14], 110%.

As to `CCCCCCCCc1ccc(CCC(N)(CO)CO)cc1` [fingolimod] + CCCS(=O)(=O)Nc1ccc(F)c(C(=O)c2c[nH]c3ncc(Cl)cc23)c1F [PLX4720] (first compound 2 µM, partner dose 0.08 µM), the cell count in [1] is 81.2%; in test [2] it was 90.4%; in [3] it was 95.1%; in test [4], 85.5%; in test [5], 74.7%; in test [6], 90.2%. For the same compound, the cell count in test [7] came to 98.8%; in test [8], 61.9%; in test [9], 85.3%; in test [10] it was 109%; in test [11] it was 87.1%; in test [12] it was 63.9%. Further, the cell count in [13] is 94.4%; in [14], 91.6%.

`NC(=O)c1ccc(N(C(N)=O)c2c(F)cccc2F)nc1-c1ccc(F)cc1F` + Nc1cccc2c1CN(C1CCC(=O)NC1=O)C2=O [lenalidomide] (first compound 0.4 µM, partner dose 1 µM): the cell count in test [1] stood at 96.2%; in [2], 105%; in test [3], 91.1%; in [4], 83%; in test [5], 86.4%; in [6] it was 87.4%. Moreover, the cell count stood at 111% in test [7]; 93.6% in test [8]; 107% in test [9]; 93.9% in test [10]; 90.1% in [11]; 97.1% in test [12]. The cell count in test [13] came out at 113%; in test [14], 108%.

In the case of `NC(=O)c1ccc(N(C(N)=O)c2c(F)cccc2F)nc1-c1ccc(F)cc1F` + OCc1c[nH]c2ccccc12 [Indole-3-carbinol] (first compound 0.4 µM, partner dose 0.8 µM), the cell count came out at 103% in [1]; 84.3% in test [2]; 92.7% in [3]; 76.7% in [4]; 69.3% in [5]; 93.9% in test [6]. Besides, the cell count in [7] worked out at 96.9%; in test [8], 81.2%; in test [9], 85.1%; in test [10], 86.6%; in [11], 92.6%; in test [12] it was 101%. Moreover, the values for the cell count in [13] and in test [14] were 94.9% and 96.3%, respectively.

Take `CCCCCCCCc1ccc(CCC(N)(CO)CO)cc1` [fingolimod] + CC(=O)O[C@@]12CO[C@@H]1C[C@H](O)[C@@]1(C)C(=O)[C@H](O)C3=C(C)[C@@H](OC(=O)[C@H](O)[C@@H](NC(=O)OC(C)(C)C)c4ccccc4)C[C@@](O)([C@@H](OC(=O)c4ccccc4)[C@H]21)C3(C)C [Docetaxel] (first compound 2 µM, partner dose 0.0001 µM): the cell count in test [1] is 73.8%; in [2] it was 66.6%; in test [3], 46.4%; in test [4], 90.9%; in test [5], 67.8%; in test [6], 59.1%. Also, the cell count worked out at 56.1% in test [7]; 58.9% in [8]; 75.4% in [9]; 55.2% in test [10]; 63.6% in test [11]; 58% in [12]. Further, the cell count in test [13] was found to be 85.8%; in [14] it was 75.2%.

Consider `CCCCCCCCc1ccc(CCC(N)(CO)CO)cc1` [fingolimod] + O=C(O)[C@@H]1[O][Sb](=[O])([O][Sb]2(=[O])[O][C@H]([C@H](O)CO)[C@H](O)[C@H](C(=O)O)[O]2)[O][C@H]([C@H](O)CO)[C@@H]1O [stibogluconate] (first compound 2 µM, partner dose 2 µM), for which the cell count in test [1] came to 97.7%; in test [2], 90.8%; in test [3], 91.9%; in [4] it was 110%; in test [5], 80.8%; in [6], 81.5%. The cell count is 108% in test [7]; 104% in [8]; 109% in [9]; 119% in test [10]; 97.8% in [11]; 82.8% in [12]. For the same compound, the figures for the cell count in test [13] and in test [14] were 124% and 114%, respectively.

With `CCCCCCCCc1ccc(CCC(N)(CO)CO)cc1` [fingolimod] + C[C@@H](Oc1cc(-c2cnn(C3CCNCC3)c2)cnc1N)c1c(Cl)ccc(F)c1Cl [Crizotinib] (first compound 2 µM, partner dose 0.2 µM), the cell count in test [1] is 81.3%; in test [2] it was 97.5%; in test [3], 90.2%; in test [4], 77.1%; in [5] it was 108%; in test [6], 99.4%. Also, the cell count is 107% in test [7]; 97.9% in test [8]; 111% in test [9]; 109% in [10]; 76.1% in test [11]; 97.4% in [12]. Besides, the figures for the cell count in test [13] and in [14] were 90.2% and 114%, respectively.

The values above are taken from the supplement of paper PMC4604168 (melanoma cell lines).
